Results as given in the antibiotic and cytotoxicity screens of Wong et al. (2023).
Some of the results follow.

What was measured:
HSkMC = human skeletal muscle cells; assay: cytotoxicity call (relative viability < 0.9); settings: 10 µM
S. aureus RN4220 = assay: growth inhibition call (relative growth <= 0.2); settings: 50 µM

| Compound | cytotoxicity call (HSkMC) | growth inhibition call (S. aureus RN4220) |
| --- | --- | --- |
| Cc1ccccc1C(OCCN(C)C)c1ccccc1.O=C(O)CC(O)(CC(=O)O)C(=O)O (stereo not given) | inactive | inactive |
| COc1ccc(CN(C)C[C@H]2OCCCC[C@@H](C)Oc3ccc(NC(=O)Nc4cccc5ccccc45)cc3C(=O)N([C@H](C)CO)C[C@H]2C)cc1 | inactive | inactive |
| C[C@@H]1CN([C@H](C)CO)C(=O)Cc2cc(NC(=O)CCN3CCOCC3)ccc2O[C@@H]1CN(C)Cc1ccncc1 | inactive | inactive |
| C[C@@H]1CCCCO[C@H](CN(C)Cc2ccc3c(c2)OCO3)[C@H](C)CN([C@H](C)CO)C(=O)c2cc(NC(=O)c3ccccc3)ccc2O1 | inactive | inactive |
| Cc1c(C(N)=O)nnn1-c1ccc(F)cc1 | inactive | inactive |
| C[C@@H]1CN([C@H](C)CO)C(=O)Cc2cc(NS(=O)(=O)c3ccc(F)cc3)ccc2O[C@H]1CN(C)Cc1ccncc1 | inactive | inactive |
| C=CCC[C@@H](Cc1ccc(F)cc1)C(=O)OC[C@@H](Cc1ccccc1)NC(=O)[C@H](CC=C)CC(=O)N[C@@H](CO)Cc1ccccc1 | inactive | inactive |
| C[C@@H]1CN([C@H](C)CO)S(=O)(=O)c2ccc(/C=C/c3ccccc3)cc2O[C@H]1CN(C)C(=O)Nc1cc(F)ccc1F | active | inactive |
| COc1ccc(S(=O)(=O)N(C)C[C@@H]2Oc3ncc(C#CC4(O)CCCC4)cc3C(=O)N([C@@H](C)CO)C[C@@H]2C)cc1 | inactive | inactive |
| C[C@H]1CN([C@@H](C)CO)C(=O)Cc2cc(NC(=O)Cn3cnnn3)ccc2O[C@@H]1CN(C)Cc1ccc(Cl)c(Cl)c1 | inactive | inactive |
